Experimental findings from the supplement of paper PMC4967469 are described below.

One may read the pIC50 as −log10 of the IC50, conventionally taken in molar units.

pIC50: −log10 of the molar value. A lower IC50 marks a more sensitive line; fits outside the tested doses are given as limits. AUC is the area under the same curve over the 256-fold range up to the top dose, as a fraction; values near 1 show little effect. For some of these results: The top dose, if marked as inferred, is not printed in the source and was worked back from the curve model.

What all share (test): Viability of human cancer cell lines after 72 h of drug (GDSC screen)
Compound in one assay: C=C(c1ccc(C(=O)O)cc1)c1cc2c(cc1C)C(C)(C)CCC2(C)C [Bexarotene]
The following applies: top dose 8 µM. The method, then:
(§1)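 Human cancer cell lines in 384-well plates, medium with 10% serum, drug for 72 h over a 256-fold dose range (nine 2-fold or five 4-fold steps up to the top dose). Adherent lines were fixed and stained with the nucleic acid dye Syto60, suspension lines read with resazurin; signal relative to control wells, capped at 0 and 100%. One two-parameter sigmoid per drug and line, fitted in a mixed model over all curves with the slope shared within a line.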

Compound in the next assay: COc1cc(C(=O)NC2CCN(C)CC2)ccc1Nc1ncc2c(n1)N(C1CCCC1)C(C)CC(=O)N2C [NPK76-II-72-1]
The following applies: top dose 10.24 µM; top dose inferred. On the procedure: as §1

Compound in a further assay: COc1cc([C@@H]2c3cc4c(cc3[C@@H](O[C@@H]3O[C@@H]5CO[C@@H](C)O[C@H]5[C@H](O)[C@H]3O)[C@H]3COC(=O)[C@H]23)OCO4)cc(OC)c1O [Etoposide]
The note with it: top dose 16 µM. The method, then: as §1

Compound in a further assay: COc1ccc(C(=O)CC2(O)C(=O)Nc3c(Cl)ccc(Cl)c32)cc1 [YK 4-279]
The note with it: top dose 10 µM. The method, then: as §1

Compound in a further assay: Cc1ccc2nc(NCCN)c3ncc(C)n3c2c1 [BMS-345541]
The note with it: top dose 16 µM. On the procedure: as §1

Compound in another assay: NC(=O)Nc1cc(-c2cccc(F)c2)sc1C(=O)N[C@H]1CCCNC1 [AZD7762]
The note with it: top dose 2 µM. The method, then:
as §1

Compound in the next assay: O=C(O)c1ccc(-c2c[nH]c3ncc(-c4ccccc4)cc23)cc1C1CCCC1 [GSK-650394]
The following applies: top dose 16 µM; top dose inferred. The method, then:
as §1

Compound in another assay: Oc1nc(-c2ccc(C(F)(F)F)cc2)nc2c1CSCC2 [XAV 939]
The following applies: top dose 5 µM; top dose inferred. The method, then:
as §1

As for KGN (ovary, adherent), the AUC turned out to be 0.852 in the assay with Bexarotene; 0.848 with NPK76-II-72-1; 0.355 with Etoposide; 0.753 in the assay with YK 4-279; 0.865 with BMS-345541; 0.691 with AZD7762. In addition, the AUC with GSK-650394 turned out to be 0.853; in the assay with XAV 939, 0.903. The pIC50 in the assay with Bexarotene was below 5.10; with NPK76-II-72-1, 4.99; in the assay with Etoposide, 6.44; with YK 4-279 it was 5.40; with BMS-345541, below 4.80; with AZD7762 it was 6.31. Moreover, the pIC50 was below 4.80 with GSK-650394 and below 5.30 with XAV 939.

Turning to KINGS-1 (glioma, adherent), the AUC in the assay with Bexarotene stood at 0.896; in the assay with NPK76-II-72-1, 0.947; with Etoposide, 0.908; in the assay with YK 4-279, 0.811; in the assay with BMS-345541, 0.931; with AZD7762 it was 0.815. Besides, the AUC in the assay with GSK-650394 was 0.98; in the assay with XAV 939, 0.97. Besides, the pIC50 in the assay with Bexarotene was below 5.10; in the assay with NPK76-II-72-1, below 4.99; in the assay with Etoposide, below 4.80; in the assay with YK 4-279, 5.10; with BMS-345541, below 4.80; with AZD7762, 5.78. Also, the pIC50 with GSK-650394 was below 4.80; in the assay with XAV 939, below 5.30.

For the cell line KLE (endometrium, adherent), the AUC with Bexarotene amounted to 0.97; with NPK76-II-72-1, 0.93; in the assay with Etoposide, 0.77; in the assay with YK 4-279, 0.847; with BMS-345541, 0.868; with AZD7762 it was 0.805. Besides, the AUC was determined as 0.928 with GSK-650394 and 0.93 with XAV 939. The pIC50 in the assay with Bexarotene is below 5.10; with NPK76-II-72-1, below 4.99; with Etoposide, 5.01; in the assay with YK 4-279 it was below 5.00; with BMS-345541 it was below 4.80; with AZD7762, 5.75. Further, the pIC50 is below 4.80 with GSK-650394 and below 5.30 with XAV 939.

In the case of KM-H2 (Hodgkin lymphoma, suspension), the AUC amounted to 0.99 with Bexarotene; 0.791 with NPK76-II-72-1; 0.496 in the assay with Etoposide; 0.754 with YK 4-279; 0.879 with BMS-345541; 0.855 with AZD7762. Also, the AUC in the assay with GSK-650394 turned out to be 0.97; with XAV 939, 0.992. The pIC50 with Bexarotene is below 5.10; with NPK76-II-72-1 it was 5.42; in the assay with Etoposide, 6.01; with YK 4-279 it was 5.54; with BMS-345541, 4.92; with GSK-650394 it was below 4.80. In addition, the pIC50 with XAV 939 was below 5.30.

KMH-2 (thyroid, adherent): the AUC with Bexarotene was 0.947; with NPK76-II-72-1 it was 0.99; in the assay with Etoposide it was 0.564; in the assay with YK 4-279, 0.638; in the assay with BMS-345541, 0.809; in the assay with AZD7762 it was 0.652. Moreover, the AUC with GSK-650394 was 0.726; with XAV 939 it was 0.988. For the same cell line, the pIC50 with Bexarotene is below 5.10; with NPK76-II-72-1, below 4.99; in the assay with Etoposide, 5.84; in the assay with YK 4-279, 5.84; with BMS-345541 it was 5.14; in the assay with AZD7762, 6.50. For the same cell line, the pIC50 was 5.39 with GSK-650394 and below 5.30 with XAV 939.

Consider “KMOE-2 (acute myeloid leukaemia, suspension)”, for which the AUC with Bexarotene stood at 0.952; with NPK76-II-72-1, 0.794; in the assay with Etoposide, 0.725; with YK 4-279, 0.566; with BMS-345541 it was 0.734; in the assay with AZD7762, 0.684. Also, the AUC worked out at 0.928 with GSK-650394 and 0.968 in the assay with XAV 939. Also, the negative-log IC50 (pIC50) in the assay with Bexarotene is below 5.10; in the assay with NPK76-II-72-1, 5.38; in the assay with Etoposide, 5.40; with YK 4-279 it was 6.03; with BMS-345541, 5.37; in the assay with AZD7762, 6.42. Also, the figures for the pIC50 with GSK-650394 and in the assay with XAV 939 were below 4.80 and below 5.30, respectively.

As to KMRC-20 (kidney, adherent), the AUC with Bexarotene came out at 0.969; with NPK76-II-72-1, 0.984; with Etoposide, 0.679; with YK 4-279 it was 0.875; with BMS-345541, 0.984; with AZD7762, 0.633. Moreover, the figures for the AUC with GSK-650394 and with XAV 939 were 0.939 and 0.979, respectively. Also, the pIC50 with Bexarotene is below 5.10; with NPK76-II-72-1, below 4.99; in the assay with Etoposide, 5.50; with YK 4-279, below 5.00; with BMS-345541, below 4.80; with AZD7762, 6.53. For the same cell line, the pIC50 with GSK-650394 was below 4.80; in the assay with XAV 939, below 5.30.

Regarding KNS-42 (glioma, adherent), the AUC with Bexarotene came to 0.933; in the assay with NPK76-II-72-1, 0.874; in the assay with Etoposide, 0.814; with YK 4-279, 0.765; in the assay with BMS-345541 it was 0.949; in the assay with AZD7762, 0.953. Moreover, the AUC in the assay with GSK-650394 turned out to be 0.926; with XAV 939, 0.961. The pIC50 in the assay with Bexarotene is below 5.10; with NPK76-II-72-1, below 4.99; with Etoposide it was 4.96; with YK 4-279, 5.36; with BMS-345541, below 4.80; with AZD7762, below 5.70. Moreover, the results for the pIC50 in the assay with GSK-650394 and with XAV 939 were below 4.80 and below 5.30, respectively.
